Assay results as given in PubChem BioAssay (NCI).
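Step 1: Grow cells in 96-well plates. Step 2: Expose to compound for 48 hours at 5 concentrations. Step 3: Interpolate endpoints linearly; if unreached, use highest concentration. GI50 marks 50% less growth. The concentration for full growth arrest is given as TGI.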

Tested on: NCI-H322M lung
Assay: inhibition of tumour cell growth, NCI panel, 48 h

For `O=C(Nc1cc(Cl)cc(Cl)c1)Nc1nc2ccc([N+](=O)[O-])cc2s1`, which GI50 is on record?
The GI50 was 1540 nM.

And the TGI?
Its TGI is 8840 nM.

Which results are given for `COc1ccc2sc(NC(=O)CCCCCCNC(=O)C(O)(O)C(F)(F)F)nc2c1`?
GI50: 1420 nM; TGI: 14300 nM

`O=C(Nc1cccc(-c2nc(-c3ccc(NC(=O)c4cccnc4)cc3Cl)no2)c1)Nc1ccc(NC(=O)C2CC2)c(C(F)(F)F)c1` was tested. Which GI50 did it give?
The GI50 was 474 nM.

And the TGI?
The TGI was 2200 nM.

Which results are given for `IP(CCCSc1n(Cc2ccc3ccccc3c2)c(-c2ccccc2)c(-c2ccccc2)[n+]1Cc1ccc2ccccc2c1)(c1ccccc1)(c1ccccc1)c1ccccc1`?
GI50: 3620 nM; TGI: 25200 nM
